Test results reported in the supplement of paper PMC8728848.
This is one part of the list.

Columns and labels:
Assay in all cases: glycan array binding signal (z-score within array); higher = stronger binding
Conditions in all cases: glycan notation: IUPAC condensed, linker removed
[1] = target: Man(a1-3)[Man(a1-6)]Man(a1-6)[Man(a1-3)]Man
Procedure, shortened: (§1)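 The binding signal is a Z-score computed within each array. Data were drawn from 3228 arrays in the Consortium for Functional Glycomics database, restricted to those with a known protein sequence. Scores were averaged over arrays of the same protein sequence at different concentrations or buffers, and over linkers, and negative values can be taken as non-binding.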

[2] = target: Man(a1-3)[Man(a1-6)]Man(a1-6)[Man(a1-3)]Man(b1-4)GlcNAc(b1-4)GlcNAc
Procedure, shortened: as §1

[3] = target: Man(a1-3)[Man(a1-6)]Man(b1-4)GlcNAc(b1-4)GlcNAc
Procedure, shortened: as §1

[4] = target: Man(a1-3)[Man(a1-6)]Man(b1-4)GlcNAc(b1-4)[Fuc(a1-6)]GlcNAc
Procedure, shortened: as §1

Man(a1-6)Man = target: Man(a1-6)Man
Procedure, shortened: as §1

Man(b1-4)GlcNAc = target: Man(b1-4)GlcNAc
Procedure, shortened: as §1

MurNAc(b1-4)GlcNAc = target: MurNAc(b1-4)GlcNAc
Procedure, shortened: as §1

Neu5Ac(a2-3)Gal = target: Neu5Ac(a2-3)Gal
Procedure, shortened: as §1

[5] = target: Neu5Ac(a2-3)Gal(b1-3)GalNAc
Procedure, shortened: as §1

[6] = target: Neu5Ac(a2-3)Gal(b1-3)GalNAc(b1-3)Gal(a1-4)Gal(b1-4)Glc
Procedure, shortened: as §1

[7] = target: Neu5Ac(a2-3)Gal(b1-3)GalNAc(b1-4)Gal(b1-4)Glc
Procedure, shortened: as §1

[8] = target: Neu5Ac(a2-3)Gal(b1-3)GalNAc(b1-4)[Neu5Ac(a2-3)]Gal(b1-4)Glc
Procedure, shortened: as §1

[9] = target: Neu5Ac(a2-3)Gal(b1-3)GalNAc(b1-4)[Neu5Ac(a2-8)Neu5Ac(a2-3)]Gal(b1-4)Glc
Procedure, shortened: as §1

[10] = target: Neu5Ac(a2-3)Gal(b1-3)GalNAc6S
Procedure, shortened: as §1

[11] = target: Neu5Ac(a2-3)Gal(b1-3)GlcNAc
Procedure, shortened: as §1

[12] = target: Neu5Ac(a2-3)Gal(b1-3)GlcNAc(b1-2)Man
Procedure, shortened: as §1

[13] = target: Neu5Ac(a2-3)Gal(b1-3)GlcNAc(b1-2)Man(a1-3)[GlcNAc(b1-4)][Neu5Ac(a2-3)Gal(b1-3)GlcNAc(b1-2)Man(a1-6)]Man(b1-4)GlcNAc(b1-4)GlcNAc
Procedure, shortened: as §1

[14] = target: Neu5Ac(a2-3)Gal(b1-3)GlcNAc(b1-2)Man(a1-3)[Neu5Ac(a2-3)Gal(b1-3)GlcNAc(b1-2)Man(a1-6)]Man(b1-4)GlcNAc(b1-4)GlcNAc
Procedure, shortened: as §1

[15] = target: Neu5Ac(a2-3)Gal(b1-3)GlcNAc(b1-2)[Neu5Ac(a2-3)Gal(b1-3)GlcNAc(b1-4)]Man(a1-6)[Neu5Ac(a2-3)Gal(b1-3)GlcNAc(b1-2)Man(a1-3)]Man(b1-4)GlcNAc(b1-4)GlcNAc
Procedure, shortened: as §1

[16] = target: Neu5Ac(a2-3)Gal(b1-3)GlcNAc(b1-3)Gal(b1-3)GlcNAc
Procedure, shortened: as §1

[17] = target: Neu5Ac(a2-3)Gal(b1-3)GlcNAc(b1-3)Gal(b1-4)GlcNAc
Procedure, shortened: as §1

[18] = target: Neu5Ac(a2-3)Gal(b1-3)GlcNAc(b1-3)GalNAc
Procedure, shortened: as §1

[19] = target: Neu5Ac(a2-3)Gal(b1-3)GlcNAc(b1-6)GalNAc
Procedure, shortened: as §1

[20] = target: Neu5Ac(a2-3)Gal(b1-3)GlcNAc6S
Procedure, shortened: as §1

[21] = target: Neu5Ac(a2-3)Gal(b1-3)[Fuc(a1-4)]GlcNAc
Procedure, shortened: as §1

[22] = target: Neu5Ac(a2-3)Gal(b1-3)[Fuc(a1-4)]GlcNAc(b1-3)Gal(b1-3)[Fuc(a1-4)]GlcNAc
Procedure, shortened: as §1

[23] = target: Neu5Ac(a2-3)Gal(b1-3)[Fuc(a1-4)]GlcNAc(b1-3)Gal(b1-4)[Fuc(a1-3)]GlcNAc
Procedure, shortened: as §1

[24] = target: Neu5Ac(a2-3)Gal(b1-3)[GlcNAc(b1-6)]GalNAc
Procedure, shortened: as §1

[25] = target: Neu5Ac(a2-3)Gal(b1-3)[Neu5Ac(a2-6)]GalNAc
Procedure, shortened: as §1

[26] = target: Neu5Ac(a2-3)Gal(b1-3)[Neu5Ac(a2-6)]GlcNAc(b1-3)[Fuc(a1-3)[Gal(b1-4)]GlcNAc(b1-6)]Gal(b1-4)Glc
Procedure, shortened: as §1

[27] = target: Neu5Ac(a2-3)Gal(b1-3)]Neu5Ac(a2-3)Gal(b1-4)]GlcNAc
Procedure, shortened: as §1

Neu5Ac(a2-3)Gal(b1-4)Glc = target: Neu5Ac(a2-3)Gal(b1-4)Glc
Procedure, shortened: as §1

[28] = target: Neu5Ac(a2-3)Gal(b1-4)GlcNAc
Procedure, shortened: as §1

[29] = target: Neu5Ac(a2-3)Gal(b1-4)GlcNAc(b1-2)Man
Procedure, shortened: as §1

[30] = target: Neu5Ac(a2-3)Gal(b1-4)GlcNAc(b1-2)Man(a1-3)[GlcNAc(b1-4)][Neu5Ac(a2-3)Gal(b1-4)GlcNAc(b1-2)Man(a1-6)]Man(b1-4)GlcNAc(b1-4)GlcNAc
Procedure, shortened: as §1

[31] = target: Neu5Ac(a2-3)Gal(b1-4)GlcNAc(b1-2)Man(a1-3)[Neu5Ac(a2-3)Gal(b1-4)GlcNAc(b1-2)Man(a1-6)]Man(b1-4)GlcNAc(b1-4)GlcNAc
Procedure, shortened: as §1

[32] = target: Neu5Ac(a2-3)Gal(b1-4)GlcNAc(b1-2)Man(a1-3)[Neu5Ac(a2-3)Gal(b1-4)GlcNAc(b1-2)Man(a1-6)]Man(b1-4)GlcNAc(b1-4)[Fuc(a1-6)]GlcNAc
Procedure, shortened: as §1

[33] = target: Neu5Ac(a2-3)Gal(b1-4)GlcNAc(b1-2)Man(a1-3)[Neu5Ac(a2-6)Gal(b1-4)GlcNAc(b1-2)Man(a1-6)]Man(b1-4)GlcNAc(b1-4)GlcNAc
Procedure, shortened: as §1

B1: Epa13 (Candida glabrata) (protein)
chain: MGSSHHHHHHSSGLVPRGSHMASDSSENGYAHGCSPSIRAKLKPGLSMEIYSYALRPTDDHCWDSAYLDPMFPRTGYLTHKLLGKAEGIIGPLNFLAKNPACIPAVSTLPLAFHFPKPFTITNFTMLLYGYLSPKKTGKYTFKLLADDLLLMNFGADNAFDCCSHDATKDNIGEYVAYSVWPGVNKNVTVYLESGIYYPLRLFFNNRDAIAQLDFAYYFNDSPIRQTDFSGMFFSIPDSVKCPANI
glycan array binding signal (z-score) [1]: -0.473 | glycan array binding signal (z-score) [2]: -0.123 | glycan array binding signal (z-score) [3]: -0.305 | glycan array binding signal (z-score) [4]: 0.935 | glycan array binding signal (z-score) (Man(a1-6)Man): 0.143 | glycan array binding signal (z-score) (Man(b1-4)GlcNAc): -0.002 | glycan array binding signal (z-score) (MurNAc(b1-4)GlcNAc): -0.227 | glycan array binding signal (z-score) (Neu5Ac(a2-3)Gal): -0.372 | glycan array binding signal (z-score) [5]: -0.37 | glycan array binding signal (z-score) [6]: -0.324 | glycan array binding signal (z-score) [7]: -0.145 | glycan array binding signal (z-score) [8]: -0.116 | glycan array binding signal (z-score) [9]: -0.381 | glycan array binding signal (z-score) [10]: -0.476 | glycan array binding signal (z-score) [11]: -0.335 | glycan array binding signal (z-score) [12]: -0.315 | glycan array binding signal (z-score) [13]: 0.094 | glycan array binding signal (z-score) [14]: -0.285 | glycan array binding signal (z-score) [15]: -0.373 | glycan array binding signal (z-score) [16]: -0.449 | glycan array binding signal (z-score) [17]: -0.174 | glycan array binding signal (z-score) [18]: -0.168 | glycan array binding signal (z-score) [19]: -0.1 | glycan array binding signal (z-score) [20]: 0.379 | glycan array binding signal (z-score) [21]: -0.244 | glycan array binding signal (z-score) [22]: -0.221 | glycan array binding signal (z-score) [23]: -0.039 | glycan array binding signal (z-score) [24]: -0.101 | glycan array binding signal (z-score) [25]: -0.48 | glycan array binding signal (z-score) [26]: -0.357 | glycan array binding signal (z-score) [27]: -0.306 | glycan array binding signal (z-score) (Neu5Ac(a2-3)Gal(b1-4)Glc): -0.165 | glycan array binding signal (z-score) [28]: -0.202 | glycan array binding signal (z-score) [29]: 0.565 | glycan array binding signal (z-score) [30]: -0.336 | glycan array binding signal (z-score) [31]: -0.371 | glycan array binding signal (z-score) [32]: 1.08 | glycan array binding signal (z-score) [33]: -0.354
